# Data as given in publication PMC6212790.
# This is one part of the list. At the low end of the ranking the order means little.
# Target: T1, GST-Rok (full length) (UniProt O34857)
# T1 sequence: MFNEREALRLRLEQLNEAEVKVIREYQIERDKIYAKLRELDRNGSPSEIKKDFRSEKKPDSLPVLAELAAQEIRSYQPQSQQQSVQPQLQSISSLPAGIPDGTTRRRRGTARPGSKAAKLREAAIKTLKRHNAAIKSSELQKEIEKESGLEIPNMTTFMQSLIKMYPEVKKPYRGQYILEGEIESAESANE
# Assay: protein binding microarray;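 note: rank score from −0.5 (least bound) to 0.5 (best bound)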
# Details: Rok is a gene silencer of Bacillus subtilis; high values mean tight binding; most listed sequences are background and not binding sites; double strand, one strand shown
row,Sequence,binding signal [E-score]
1,GTGTCTCA,-0.215
2,GTCCGGAC,-0.0589
3,ACGCCCTC,-0.344
4,ACGGAAGT,0.157
5,ATTGAGTG,0.0352
6,GTGGCTAA,-0.053
7,AGTTCATG,0.12
8,ATTATGCG,0.0785
9,CGATGGTA,0.276
10,AACTTTAT,0.173
11,CACACAAC,-0.0368
12,CCCTTATC,-0.109
13,ACTTGAAT,0.14
14,AATCCGGA,-0.113
15,ACCTTTAT,0.129
16,CAGTCTGA,-0.176
17,AATCCGAA,0.0235
18,GACGCACC,-0.28
19,CCCTCTCA,-0.26
20,GCCTCGTA,-0.204
21,GTGTAGAA,0.292
22,AACTACGC,0.201
23,TGTAAAAA,0.317
24,GTTGTTTA,-0.0278
25,CGCGGGGC,-0.316

row,Sequence,binding signal [E-score]
1,AAGCCCCC,-0.461
2,ACACGCGA,0.0175
3,CCGTTTCA,-0.174
4,AATTTCCA,0.104
5,GCTTTTTA,0.157
6,ACCCGCGT,-0.099
7,GCCGCCAC,-0.216
8,CAGCTCCC,-0.366
9,CTAACATC,0.18
10,AAAATAAT,0.246
11,CCGTGAGG,-0.256
12,AACCCTAC,0.0465
13,ACGCGTCG,0.024
14,AAGTGTGT,0.096
15,TAGACAAA,0.0516
16,AATGTCCA,0.0401
17,ACACCCTG,-0.00397
18,GTCTGCAC,-0.13
19,GGCCGGCC,-0.34
20,CTCTGCGC,-0.0551
21,TCGCACAA,0.0863
22,CACTATCA,0.219
23,ACTGGGCC,-0.286
24,CATAATGC,0.235
25,ATGTCGAC,0.0407

row,Sequence,binding signal [E-score]
1,AATGCACT,-0.0288
2,AACGTTTA,0.123
3,CTGGAAGC,-0.219
4,AACACCCG,-0.142
5,AGTGTATC,0.129
6,CATACAAA,0.288
7,GCGGCCAA,-0.188
8,ATAATTCA,0.21
9,ACATTAAC,0.213
10,CTTTAAAG,0.0411
11,CCGGCATC,-0.236
12,ACTCACAT,-0.00348
13,GGGGTAAC,-0.248
14,TAATCTAA,0.241
15,CCTAATAG,0.0183
16,CAAAGTTC,-0.0163
17,AGTATCAT,0.196
18,GGACTCAC,-0.132
19,ATTCTGCA,0.137
20,AACAGGCG,-0.0571
21,GAGCTTCC,-0.309
22,ACATGGTA,0.231
23,CATCCGCG,-0.0996
24,CATCCCCC,-0.393
25,CCTAACTC,-0.219

row,Sequence,binding signal [E-score]
1,GACCCCGA,-0.356
2,ATTCCAGC,-0.0834
3,GATCGATA,0.269
4,CACGGGCG,-0.264
5,CAAATGGA,-0.213
6,GTAGGGAA,0.0177
7,CAGTATCG,0.199
8,CGTCTGGA,-0.0488
9,ACTCCTGG,-0.187
10,GTTAAAAC,0.127
11,CGGTGTAC,-0.139
12,ACATGGGG,-0.0896
13,CAGGCCAA,-0.252
14,AATTGAGC,-0.0437
15,AGACCGGC,-0.0591
16,ATCCATCG,-0.0491
17,ATGAACAA,0.166
18,AGTCCGTG,0.00594
19,ACACGATG,0.0393
20,GGAACCGA,-0.146
21,CTCTATTC,0.00987
22,AATTCTCC,0.199
23,ATAATCGG,-0.143
24,CACTAAGC,-0.0899
25,CCGACCCA,-0.225

row,Sequence,binding signal [E-score]
1,ATCGTGCC,0.00076
2,AGTCACGG,-0.189
3,CATAAATA,0.195
4,CGGTCCTC,-0.286
5,AGCCGTAT,-0.0672
6,ACGTAGGG,-0.299
7,AACATAAC,0.26
8,TGAAACCA,0.00302
9,CATGGGCC,-0.295
10,ACAAGCTA,0.118
11,GATCACGC,-0.219
12,ACGCGTCT,-0.00477
13,GGGCTTTA,-0.275
14,ACTGGAAA,0.0821
15,GATGTTGA,0.0108
16,ACAGACCG,-0.19
17,GCAGAACC,-0.0431
18,AATTCCCA,0.195
19,GCGCACTA,-0.0999
20,ATAATGCG,0.312
21,GGCAGGGA,-0.385
22,AATTATGT,0.289
23,CGATTTTC,-0.137
24,TGTAGGAA,0.0806
25,AACGAAGA,-0.00118

row,Sequence,binding signal [E-score]
1,CGGAGGAA,-0.194
2,TCTGCCCA,-0.14
3,ACCTGGAC,-0.098
4,AAGCAAGG,-0.19
5,CTAATCTA,0.362
6,AGTATAAT,0.301
7,AATAACGC,0.0275
8,GTCATGCA,-0.122
9,ACCGCCCA,-0.194
10,ACATCTTC,0.0126
11,ACTGAATC,0.0706
12,ATCAAGCG,-0.129
13,GGTCCATA,0.0263
14,GCTGTTCA,-0.0433
15,ATTTGTAA,0.286
16,AAGGACTC,-0.131
17,CTTCGCTA,0.133
18,GTGACTCA,-0.06
19,CGGCATGC,-0.164
20,GAGTCTAA,0.0229
21,ACTTACGA,0.183
22,CGAAAGAG,-0.217
23,ACGCCATG,-0.0833
24,AATCTCCG,0.0469
25,GGCCGTTA,-0.101

row,Sequence,binding signal [E-score]
1,GACGGTCA,-0.138
2,CGGATTCA,-0.0882
3,AATGAGAT,0.175
4,AACGTTCA,-0.0105
5,ACAAGTCC,-0.211
6,CTTGGGAC,-0.314
7,CAAGCGCC,-0.222
8,ATGATCCG,-0.0331
9,AAAAATAA,0.292
10,GGTGTATA,0.256
11,CCGAATCG,-0.0381
12,CTCACCTA,0.121
13,GGCCGTAA,-0.189
14,GCCCCCAC,-0.309
15,ACTTTCCA,0.0699
16,AAGTTTAA,-0.0141
17,AACTCTGG,-0.176
18,TCAGGTCA,-0.07
19,CACGACAG,-0.108
20,CCAGTCGG,-0.248
21,AAATGTAA,0.389
22,CCTAAACA,-0.128
23,CGACGACA,-0.126
24,ACTCTGGG,-0.049
25,AGCCAGAC,-0.135

row,Sequence,binding signal [E-score]
1,ATCAACCG,-0.0968
2,AACATCAT,-0.0276
3,GATTGACC,0.036
4,CACTACTA,0.354
5,ATGAAGAC,0.000233
6,CGCCTCCC,-0.289
7,TGTTCAAA,-0.0535
8,CTCCCTAA,-0.172
9,AGATTCGC,-0.117
10,AATGCTCG,-0.0567
11,CTATACAG,0.248
12,ACGTTGAA,0.0459
13,GCCCCAAA,-0.273
14,GAATTATC,0.236
15,CGCCATTA,0.0629
16,GCCTCTGA,-0.154
17,CGAAGCTC,-0.296
18,AATCTTAT,0.194
19,CTTTAGGC,-0.138
20,AGGTCAAT,0.00352
21,CTCACGGA,-0.279
22,CAGTGTTA,0.0391
23,AGCAAGCG,-0.0451
24,ACCGACTG,-0.0242
25,TACTTCGA,0.332

row,Sequence,binding signal [E-score]
1,ATAGTGAT,0.12
2,AATTTCGA,0.352
3,CAACCTTG,-0.116
4,AGCAGAGA,-0.129
5,TCTGCCAA,-0.0949
6,ATTGTAAG,0.0277
7,ATGTCGAG,-0.109
8,AGTCAAAC,0.0377
9,CTATAAGA,0.244
10,AGATCCGA,0.0377
11,CCCGGTCC,-0.111
12,ACGATGTA,0.0899
13,ACTAAGAA,0.154
14,CGGTAATC,-0.0198
15,CCAATTCG,-0.114
16,CAGTAAGC,-0.087
17,GGGAGTGA,-0.219
18,TTATCCAA,0.0978
19,AGTGAAGA,-0.00169
20,AAATCTGC,0.0491
21,CAATCACG,-0.0935
22,ATTTGCCA,0.149
23,GATGAACA,0.143
24,AGTGCGAT,0.118
25,AATCATAT,0.129

row,Sequence,binding signal [E-score]
1,ATCTATAG,0.313
2,AGGCGAGA,-0.212
3,CACTGATC,0.0518
4,GACGGTGC,-0.197
5,GTAACTTA,0.26
6,CCTCGGAG,-0.231
7,CGCAGTAG,0.139
8,CGCGCCCG,-0.262
9,AAGGCTTA,-0.139
10,ATTCCCGC,-0.125
11,ATCTAGAT,0.322
12,GCGGCAGA,-0.075
13,ACCCCTAC,-0.266
14,ACGTTTGG,0.155
15,ATCCTTTA,-0.0018
16,ATCAGTCC,-0.0111
17,AGTGGGTA,0.162
18,ACAGCGCA,0.0294
19,AATACTAA,0.37
20,ACTCCTCG,-0.112
21,TAGCAGAA,0.127
22,CCCCGTCC,-0.271
23,CACTTGGA,-0.0489
24,AAGTAACC,-0.115
25,AGCCATAC,0.0741

row,Sequence,binding signal [E-score]
1,GTGTAAAC,0.0464
2,AAATCCGG,0.0146
3,GGCACAGA,0.00898
4,CCTGTGCC,-0.176
5,AACACCAC,-0.0276
6,GCGAAAAC,0.0869
7,AATACATA,0.373
8,AGGACTTG,-0.0621
9,GGATGGCA,-0.29
10,AAATCTAA,0.157
11,AGATTTGA,0.14
12,AATTCTAA,0.252
13,ATAGTCAA,0.175
14,AATATAGT,0.359
15,ACATTTCC,0.133
16,ACACCATA,-0.00553
17,GAGCTTAA,-0.161
18,CTTCTGTA,0.143
19,GGTGTAAC,-0.0245
20,ACTATGCA,0.171
21,CTTGACCA,-0.185
22,CATACAGA,0.0687
23,CCTACACA,0.00393
24,CCATAACA,0.131
25,ATTTATAA,0.333

row,Sequence,binding signal [E-score]
1,ATATCGGC,0.137
2,GGCAGGTA,-0.0441
3,CAAGTACA,0.165
4,GGCGCAGA,-0.165
5,CACATTAG,0.11
6,ATCGTTAG,0.0469
7,AGATAGAG,0.026
8,GCGGACAA,-0.0929
9,AAGCGGGC,-0.296
10,GAAGTTCC,-0.0907
11,CAGGGATC,-0.297
12,CACATTCG,0.00372
13,GTAGTGAC,0.0782
14,CATAAAGC,-0.123
15,GGAAGACC,-0.262
16,ACCGGTAG,0.374
17,ACTAACAA,0.24
18,GAAACCCC,-0.326
19,CCCAGGTA,0.0209
20,GTCGCTCA,-0.101
21,CCAACCGG,-0.0809
22,ACGCGGAT,0.0612
23,ACAGGCAA,-0.106
24,GCAAGAGC,-0.0382
25,GTCTGTCA,-0.184

row,Sequence,binding signal [E-score]
1,GTTAACTA,0.359
2,TGGTCTAA,0.0149
3,ACGCGCGT,-0.152
4,GCAGGTCC,-0.35
5,TCATGGCA,-0.127
6,AGTAGGCC,-0.103
7,CAGTTGAG,-0.000936
8,ACTGATCG,0.073
9,ATTACTGG,-0.0684
10,ACCACGAA,-0.0207
11,ACCCGAGT,-0.176
12,GCGTGCAC,-0.18
13,CAGTCCGA,-0.0315
14,GAACTATA,0.289
15,CTTTTCTC,-0.00403
16,CCATAGCG,-0.00718
17,CTAAGTGC,-0.183
18,CCATTCCC,-0.201
19,AGTCCTAT,0.0715
20,ACGCTCAA,0.114
21,CACTTAAC,0.0737
22,CAGAGAAG,0.00425
23,CCTTAGGC,-0.233
24,TCTATGAA,0.074
25,GGGCTACA,-0.0889

row,Sequence,binding signal [E-score]
1,CGCTTTAA,-0.0788
2,CAGTACGC,0.0501
3,GCATAGGC,-0.0277
4,AAATTACA,0.301
5,ACAGCTGT,-0.0251
6,CCATTCTA,0.326
7,ACCATTCA,0.0829
8,ACGTATAT,0.365
9,GTGCACCA,-0.142
10,CAACCAAG,0.0888
11,CCGGGCAC,-0.303
12,CCAACAAC,-0.112
13,ATGTGTGC,-0.161
14,ACCGCCAT,-0.14
15,CACGTCAA,0.00857
16,ATTTGTCC,-0.0469
17,ATACCACA,0.208
18,ACTATGGG,0.0124
19,CCATGATA,0.0859
